Some of the results follow. Sequences were assembled here from the parent chain. Values near 0.05 are background.
B1: TEV protease; numbered along this chain (parent)
chain: MGESLFKGPRDYNPISSSICHLTNESDGHTTSLYGIGFGPFIITNKHLFRRNNGTLVVQSLHGVFKVKDTTTLQQHLVDGRDMIIIRMPKDFPPFPQKLKFREPQREERICLVTTNFQTKSMSSMVSDTSCTFPSGDGIFWKHWIQTKDGQCGSPLVSTRDGFIVGIHSASNFTNTNNYFTSVPKNFMELLTNQEAQQWVSGWRLNADSVLWGGHKVFMVKPEEPFQPVKEATQL

Variants of: B1
Assay: raw area under fraction-flipped curve 0-4 h after induction (AUC4h, not background-subtracted), DNA-recorder readout of cleavage of the substrate (dimensionless); higher = more cleavage of the substrate by the protease variant
Conditions: temperature: 34 °C; time window: 0-4 h after rhamnose induction
Method: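 In vivo DNA recorder in E. coli TOP10(DE3) ΔrhaA at 34 °C. Each TEVp single-site mutant (parent TEVp 0) is paired with a single-site variant of the 7-mer TEVs (canonical ENLYFQ|S). The substrate sits between flexible linkers in a Bxb1-sfGFP-TEVs-SsrA fusion, so cleavage stabilises Bxb1 and speeds flipping of a recombination array, read by NGS. The value is the raw area under the fraction-flipped curve over 0-4 h after rhamnose induction (AUC4h), with ≥20 reads per time point. It is not background-subtracted; inactive controls average about 0.047.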
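Also: Bxb1 expression induced with 0.2% (w/v) L-rhamnose at OD600 near 0.5, cultures sampled hourly, flipped fraction per protease–substrate barcode pair counted by paired-end Illumina sequencing.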

Variant | area with substrate ENLYFCS | area with substrate ENLYFFS | area with substrate ENLYFMS | area with substrate ENLYFNS | area with substrate ENLYFPS | area with substrate ENLYFSS | area with substrate ENLYFYS | area with substrate ENLYFES | area with substrate ENLYFHS | area with substrate ENLYFIS
MGESLFKGPRDYNPISSSICHLTNESDGHTTSLYGIGFGPFIITNKHLFRRNNGTLVVQSLHGVFKVKDTTTLQQHLVDGRDMIIIRMPKDFPPFPQKLKFREPQREERICLVTTNFQTKSMSSMVSDTSCTFPSGDGIFWKHWIQTKDGQCGSPLVSTRDGFIVGIHSASPFTNTNNYFTSVPKNFMELLTNQEAQQWVSGWRLNADSVLWGGHKVFMVKPEEPFQPVKEATQL [N172P] | 0.0618 | 0.0642 | 0.0504 | 0.0789 | 0.055 | – | – | – | – | –
MGESLFKGPRDYNPISSSICHLTNESDGHTTSLYGIGFGPFIITNKHLFRRNNGTLVVQSLHGVFKVKDTTTLQQHLVDGRDMIIIRMPKDFPPFPQKLKFREPQREERICLVTTNFQTKSMSSMVSDTSCTFPSGDGIFWKHWIQTKDGQCGSPLVSTRDGFIVGIHSASVFTNTNNYFTSVPKNFMELLTNQEAQQWVSGWRLNADSVLWGGHKVFMVKPEEPFQPVKEATQL [N172V] | 0.0553 | – | – | 0.0629 | 0.0567 | 0.043 | 0.0596 | – | – | –
MGESLFKGPRDYNPISSSICHLTNESDGHTTSLYGIGFGPFIITNKHLFRRNNGTLVVQSLHGVFKVKDTTTLQQHLVDGRDMIIIRMPKDFPPFPQKLKFREPQREERICLVTTNFQTKSMSSMVSDTSCTFPSGDGIFWKHWIQTKDGQCGSPLVSTRDGFIVGIHSASNTTNTNNYFTSVPKNFMELLTNQEAQQWVSGWRLNADSVLWGGHKVFMVKPEEPFQPVKEATQL [F173T] | 0.0652 | 0.0769 | 0.0674 | – | 0.0632 | 0.0462 | – | 0.06 | 0.0817 | 0.0647
MGESLFKGPRDYNPISSSICHLTNESDGHTTSLYGIGFGPFIITNKHLFRRNNGTLVVQSLHGVFKVKDTTTLQQHLVDGRDMIIIRMPKDFPPFPQKLKFREPQREERICLVTTNFQTKSMSSMVSDTSCTFPSGDGIFWKHWIQTKDGQCGSPLVSTRDGFIVGIHSASNFTQTNNYFTSVPKNFMELLTNQEAQQWVSGWRLNADSVLWGGHKVFMVKPEEPFQPVKEATQL [N175Q] | 0.0584 | 0.0891 | 0.0637 | – | 0.0657 | 0.0602 | – | 0.0855 | 0.035 | 0.0508
MGESLFKGPRDYNPISSSICHLTNESDGHTTSLYGIGFGPFIITNKHLFRRNNGTLVVQSLHGVFKVKDTTTLQQHLVDGRDMIIIRMPKDFPPFPQKLKFREPQREERICLVTTNFQTKSMSSMVSDTSCTFPSGDGIFWKHWIQTKDGQCGSPLVSTRDGFIVGIHSASNFTNTGNYFTSVPKNFMELLTNQEAQQWVSGWRLNADSVLWGGHKVFMVKPEEPFQPVKEATQL [N177G] | 0.0499 | – | 0.0767 | – | 0.0495 | 0.0767 | 0.0457 | – | – | 0.0491
MGESLFKGPRDYNPISSSICHLTNESDGHTTSLYGIGFGPFIITNKHLFRRNNGTLVVQSLHGVFKVKDTTTLQQHLVDGRDMIIIRMPKDFPPFPQKLKFREPQREERICLVTTNFQTKSMSSMVSDTSCTFPSGDGIFWKHWIQTKDGQCGSPLVSTRDGFIVGIHSASNFTNTNSYFTSVPKNFMELLTNQEAQQWVSGWRLNADSVLWGGHKVFMVKPEEPFQPVKEATQL [N178S] | 0.0562 | 0.0456 | – | 0.0522 | – | 0.0689 | – | 0.0686 | 0.0572 | 0.0466
MGESLFKGPRDYNPISSSICHLTNESDGHTTSLYGIGFGPFIITNKHLFRRNNGTLVVQSLHGVFKVKDTTTLQQHLVDGRDMIIIRMPKDFPPFPQKLKFREPQREERICLVTTNFQTKSMSSMVSDTSCTFPSGDGIFWKHWIQTKDGQCGSPLVSTRDGFIVGIHSASNFTNTNNYHTSVPKNFMELLTNQEAQQWVSGWRLNADSVLWGGHKVFMVKPEEPFQPVKEATQL [F180H] | 0.0526 | – | – | 0.0666 | – | 0.0488 | – | – | 0.0465 | 0.0543
MGESLFKGPRDYNPISSSICHLTNESDGHTTSLYGIGFGPFIITNKHLFRRNNGTLVVQSLHGVFKVKDTTTLQQHLVDGRDMIIIRMPKDFPPFPQKLKFREPQREERICLVTTNFQTKSMSSMVSDTSCTFPSGDGIFWKHWIQTKDGQCGSPLVSTRDGFIVGIHSASNFTNTNNYFESVPKNFMELLTNQEAQQWVSGWRLNADSVLWGGHKVFMVKPEEPFQPVKEATQL [T181E] | 0.0994 | 0.0449 | 0.0548 | 0.0581 | 0.0624 | – | – | – | 0.0566 | 0.0459
MGESLFKGPRDYNPISSSICHLTNESDGHTTSLYGIGFGPFIITNKHLFRRNNGTLVVQSLHGVFKVKDTTTLQQHLVDGRDMIIIRMPKDFPPFPQKLKFREPQREERICLVTTNFQTKSMSSMVSDTSCTFPSGDGIFWKHWIQTKDGQCGSPLVSTRDGFIVGIHSASNFTNTNNYFTCVPKNFMELLTNQEAQQWVSGWRLNADSVLWGGHKVFMVKPEEPFQPVKEATQL [S182C] | 0.0577 | 0.0596 | 0.0432 | – | 0.0643 | – | – | 0.0603 | – | 0.0534
MGESLFKGPRDYNPISSSICHLTNESDGHTTSLYGIGFGPFIITNKHLFRRNNGTLVVQSLHGVFKVKDTTTLQQHLVDGRDMIIIRMPKDFPPFPQKLKFREPQREERICLVTTNFQTKSMSSMVSDTSCTFPSGDGIFWKHWIQTKDGQCGSPLVSTRDGFIVGIHSASNFTNTNNYFTVVPKNFMELLTNQEAQQWVSGWRLNADSVLWGGHKVFMVKPEEPFQPVKEATQL [S182V] | 0.0375 | – | – | – | – | – | – | – | 0.0556 | –

Same assay, conditions: temperature: 34 °C; time window: 0-4 h after rhamnose induction

Variant | area with substrate ENLYFKS | area with substrate ENLYFLS | area with substrate ENLYFTS | area with substrate ENLYFWS | area with substrate ENLYFDS | area with substrate ENLYFGS | area with substrate ENLYFVS | area with substrate ENLYFRS
MGESLFKGPRDYNPISSSICHLTNESDGHTTSLYGIGFGPFIITNKHLFRRNNGTLVVQSLHGVFKVKDTTTLQQHLVDGRDMIIIRMPKDFPPFPQKLKFREPQREERICLVTTNFQTKSMSSMVSDTSCTFPSGDGIFWKHWIQTKDGQCGSPLVSTRDGFIVGIHSASNTTNTNNYFTSVPKNFMELLTNQEAQQWVSGWRLNADSVLWGGHKVFMVKPEEPFQPVKEATQL [F173T] | 0.0723 | 0.0552 | 0.0567 | 0.0616 | – | – | – | –
MGESLFKGPRDYNPISSSICHLTNESDGHTTSLYGIGFGPFIITNKHLFRRNNGTLVVQSLHGVFKVKDTTTLQQHLVDGRDMIIIRMPKDFPPFPQKLKFREPQREERICLVTTNFQTKSMSSMVSDTSCTFPSGDGIFWKHWIQTKDGQCGSPLVSTRDGFIVGIHSASNFTQTNNYFTSVPKNFMELLTNQEAQQWVSGWRLNADSVLWGGHKVFMVKPEEPFQPVKEATQL [N175Q] | – | – | 0.0768 | – | 0.0649 | 0.0713 | – | –
MGESLFKGPRDYNPISSSICHLTNESDGHTTSLYGIGFGPFIITNKHLFRRNNGTLVVQSLHGVFKVKDTTTLQQHLVDGRDMIIIRMPKDFPPFPQKLKFREPQREERICLVTTNFQTKSMSSMVSDTSCTFPSGDGIFWKHWIQTKDGQCGSPLVSTRDGFIVGIHSASNFTNTGNYFTSVPKNFMELLTNQEAQQWVSGWRLNADSVLWGGHKVFMVKPEEPFQPVKEATQL [N177G] | – | – | – | – | – | – | 0.045 | –
MGESLFKGPRDYNPISSSICHLTNESDGHTTSLYGIGFGPFIITNKHLFRRNNGTLVVQSLHGVFKVKDTTTLQQHLVDGRDMIIIRMPKDFPPFPQKLKFREPQREERICLVTTNFQTKSMSSMVSDTSCTFPSGDGIFWKHWIQTKDGQCGSPLVSTRDGFIVGIHSASNFTNTNSYFTSVPKNFMELLTNQEAQQWVSGWRLNADSVLWGGHKVFMVKPEEPFQPVKEATQL [N178S] | 0.067 | 0.0645 | 0.0553 | 0.0513 | – | – | – | 0.0787
MGESLFKGPRDYNPISSSICHLTNESDGHTTSLYGIGFGPFIITNKHLFRRNNGTLVVQSLHGVFKVKDTTTLQQHLVDGRDMIIIRMPKDFPPFPQKLKFREPQREERICLVTTNFQTKSMSSMVSDTSCTFPSGDGIFWKHWIQTKDGQCGSPLVSTRDGFIVGIHSASNFTNTNNYHTSVPKNFMELLTNQEAQQWVSGWRLNADSVLWGGHKVFMVKPEEPFQPVKEATQL [F180H] | 0.0618 | – | 0.0526 | – | – | 0.0842 | – | –
MGESLFKGPRDYNPISSSICHLTNESDGHTTSLYGIGFGPFIITNKHLFRRNNGTLVVQSLHGVFKVKDTTTLQQHLVDGRDMIIIRMPKDFPPFPQKLKFREPQREERICLVTTNFQTKSMSSMVSDTSCTFPSGDGIFWKHWIQTKDGQCGSPLVSTRDGFIVGIHSASNFTNTNNYFESVPKNFMELLTNQEAQQWVSGWRLNADSVLWGGHKVFMVKPEEPFQPVKEATQL [T181E] | – | – | – | – | 0.0499 | – | – | 0.0998
MGESLFKGPRDYNPISSSICHLTNESDGHTTSLYGIGFGPFIITNKHLFRRNNGTLVVQSLHGVFKVKDTTTLQQHLVDGRDMIIIRMPKDFPPFPQKLKFREPQREERICLVTTNFQTKSMSSMVSDTSCTFPSGDGIFWKHWIQTKDGQCGSPLVSTRDGFIVGIHSASNFTNTNNYFTCVPKNFMELLTNQEAQQWVSGWRLNADSVLWGGHKVFMVKPEEPFQPVKEATQL [S182C] | – | – | 0.0594 | 0.0598 | – | – | 0.0462 | 0.0592
MGESLFKGPRDYNPISSSICHLTNESDGHTTSLYGIGFGPFIITNKHLFRRNNGTLVVQSLHGVFKVKDTTTLQQHLVDGRDMIIIRMPKDFPPFPQKLKFREPQREERICLVTTNFQTKSMSSMVSDTSCTFPSGDGIFWKHWIQTKDGQCGSPLVSTRDGFIVGIHSASNFTNTNNYFTVVPKNFMELLTNQEAQQWVSGWRLNADSVLWGGHKVFMVKPEEPFQPVKEATQL [S182V] | 0.0551 | 0.055 | 0.0403 | 0.0609 | 0.0559 | 0.0563 | – | –

From the supplement of paper PMC12217912
